# PubChem BioAssay AID485281 (National Center for Advancing Translational Sciences (NCATS), 2010)
# The campaign covered roughly 350,000 compounds. About 260 (0.074%) were called active. The inconclusive results got no clear call from the source; some entries with a clear call stand among them for comparison. Calls follow the shape of the dose curve; as a rule, active = well fitted inhibition curve with a large enough effect; inconclusive = small, poorly fitted or top-dose-only effect; inactive = no such curve, though single readings can be large or run the other way. Where the call is inconclusive, the potency comes from a doubtful curve fit.
# Molecular target: Ferritin light chain (Equus caballus) (UniProt P02791)
# Assay: qHTS Assay for Identification of Novel General Anesthetics; also: nearly all actives have a fitted effect of over 20% in size
# Conditions: apoferritin/1-aminoanthracene competitive binding, fluorescence; series mostly up to 77.5 µM
# Outline: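 Horse-spleen apoferritin (10 uM) was mixed with 50% saturated 1-aminoanthracene in PBS, exposed to compounds for 10 min at room temperature, and read for fluorescence (ex 380 nm, em 535 nm). Competitive displacement was fitted with a four-parameter Hill equation.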
# Potency is read from the fitted curve at half-maximal effect; tags tell the direction and shape of the fitted curve.
# Chain of UniProt P02791 (P02791 whole entry, looked up): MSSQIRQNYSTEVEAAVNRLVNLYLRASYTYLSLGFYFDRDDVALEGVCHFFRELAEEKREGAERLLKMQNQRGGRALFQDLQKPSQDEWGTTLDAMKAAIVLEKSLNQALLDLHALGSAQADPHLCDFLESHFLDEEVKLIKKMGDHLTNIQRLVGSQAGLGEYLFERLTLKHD
row,SMILES,Potency
1,CCCSc1ncc(Cl)c(C(=O)N(Cc2cccc(Cl)c2)C2CCS(=O)(=O)C2)n1 (stereo not drawn),inactive
2,COC(=O)CSC1=C(C#N)C(c2ccc3c(c2)OCO3)C2=C(CCCC2=O)N1 (stereo not drawn),"inconclusive: 11.2 µM [inhibitor, partial curve]"
3,CS(=O)(=O)N(CC(=O)N1CCc2ccccc2C1)Cc1ccc(Cl)cc1,"inconclusive: 35.5 µM [inhibitor, partial curve]"
4,Cc1cccc(C(c2sc3nc(-c4ccco4)nn3c2O)N2CCN(c3ccccc3F)CC2)c1 (stereo not drawn),"inconclusive: 28.2 µM [inhibitor, single point]"
5,COc1cccc(-n2nnnc2S(C)(=O)=O)c1,inactive
6,CCC(=O)N1CCc2cc(S(=O)(=O)NCCC(=O)NCc3ccc(C)cc3)ccc21,inactive
7,CCCCn1c(N)c(-c2nc3ccccc3s2)c2c([N+](=O)[O-])nn(C)c(=O)c21,"inconclusive: 5.62 µM [inhibitor, full curve, poor fit]"
8,O=c1cc(-c2c(O)c3ccccc3n(Cc3ccccc3)c2=O)[nH][nH]1,"inconclusive: 39.8 µM [inhibitor, single point]"
9,O=C1C2C3C=CC(C3)C2C(=O)N1Cc1ccccc1 (stereo not drawn),"inconclusive: 28.2 µM [inhibitor, partial curve]"
10,O=S(=O)(c1ccc(NC(=S)NCCC(c2ccccc2)c2ccccc2)cc1)N1CCOCC1,inactive
11,NC(=O)CC(NC(=O)c1cccc(Br)c1)c1ccc(NC2CCC2)c([N+](=O)[O-])c1 (stereo not drawn),"inconclusive: 20 µM [inhibitor, partial curve]"
12,Cc1ccccc1OCCN1C(=O)NC2(CCCc3ccccc32)C1=O (stereo not drawn),"inconclusive: 39.8 µM [inhibitor, single point]"
13,O=C(CNC(=O)c1ccc(Br)cc1)OCC(=O)c1ccccc1,"inconclusive: 50.1 µM [inhibitor, single point]"
14,Clc1cccc(CN2CCSCC2)c1,"inconclusive: 25.1 µM [inhibitor, partial curve]"
15,O=S(=O)(c1cccc2nonc12)N1CCCCCC1,"inconclusive: 12.6 µM [inhibitor, partial curve]"
16,COc1ccc2c(c1)c(=O)c(Br)c(C)n2Cc1ccccc1,"inconclusive: 50.1 µM [inhibitor, single point]"
17,Cc1cc(/C=N\NC(=O)CC(=O)NC2CCCCC2)c(C)n1-c1ccc(Cl)cc1,"inconclusive: 50.1 µM [inhibitor, single point]"
18,O=C(CSc1cccc2cccnc12)OCC(=O)c1ccc(Br)cc1,"inconclusive: 5.01 µM [inhibitor, full curve, poor fit]"
